Results from PMC11272940, “UNC-45 assisted myosin folding depends on a conserved FX3HY motif implicated in Freeman Sheldon Syndrome” (Nature Communications, 2024).
Results are given in words; binding and its absence hold for the method and conditions named. Some results given as binding are weak or reduced against the parent protein; the word gives no strength.

What was measured:
[1] = target: T1, UNC-45(K82E):myo complex (C. elegans) (UniProt G5EG62+P02566); test: pull-down; recombinant HSP90 with the purified UNC-45(K82E):myo^F complex; both purified
[2] = target: T1, UNC-45(K82E):myo complex (C. elegans); test: pull-down; recombinant HSP90 with the purified UNC-45(K82E):myo^UF complex; both purified
[3] = target: T2, UNC-45:myosin (in vitro mixed, wildtype UNC-45 and MHC-B motor domain) (C. elegans) (UniProt G5EG62+P02566); test: pull-down; UNC-45, myosin and UFD-2 mixed in stoichiometric amounts, incubated at 4 °C (myosin folded); both purified
[4] = target: T3, C. elegans myosin motor domain MHC-B (1-790), wildtype (C. elegans) (UniProt P02566); test: cross-linking; XL-MS of the in vitro reconstituted UFD-2:UNC-45:myo^UF complex; 0.25 mM DSS, 20 mM HEPES pH 8.0, 150 mM NaCl, 25 °C, 30 min; both purified
T3 sequence: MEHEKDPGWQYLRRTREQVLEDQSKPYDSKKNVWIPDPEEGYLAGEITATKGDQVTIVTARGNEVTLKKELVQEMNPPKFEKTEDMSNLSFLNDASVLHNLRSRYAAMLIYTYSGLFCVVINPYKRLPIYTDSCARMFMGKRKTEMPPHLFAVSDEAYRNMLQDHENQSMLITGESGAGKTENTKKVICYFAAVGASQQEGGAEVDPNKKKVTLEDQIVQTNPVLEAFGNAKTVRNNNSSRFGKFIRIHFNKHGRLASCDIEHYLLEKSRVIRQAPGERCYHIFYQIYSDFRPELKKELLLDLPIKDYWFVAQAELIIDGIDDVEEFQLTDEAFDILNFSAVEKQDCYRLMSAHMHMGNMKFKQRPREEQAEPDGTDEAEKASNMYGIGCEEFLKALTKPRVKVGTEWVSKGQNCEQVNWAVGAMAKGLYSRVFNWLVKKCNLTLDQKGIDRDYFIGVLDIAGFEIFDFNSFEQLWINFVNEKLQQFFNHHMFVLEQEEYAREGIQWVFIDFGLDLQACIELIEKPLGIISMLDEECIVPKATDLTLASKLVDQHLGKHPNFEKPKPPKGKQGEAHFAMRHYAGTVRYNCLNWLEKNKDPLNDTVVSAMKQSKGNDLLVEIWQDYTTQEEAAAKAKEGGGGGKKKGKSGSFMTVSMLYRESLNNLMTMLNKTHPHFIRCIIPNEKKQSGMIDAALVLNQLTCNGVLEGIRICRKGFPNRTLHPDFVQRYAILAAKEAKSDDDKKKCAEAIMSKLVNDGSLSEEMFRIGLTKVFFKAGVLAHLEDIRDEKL

[5] = target: T2, UNC-45:myosin (in vitro mixed, wildtype UNC-45 and MHC-B motor domain) (C. elegans); test: pull-down; UNC-45, myosin and UFD-2 mixed in stoichiometric amounts, incubated at 27 °C (myosin unfolded); both purified
[6] = target: T4, 547–588 myosin peptide (MHC-B) (C. elegans, UniProt P02566 547-588); test: thermal shift assay; 1 μM UNC-45 or UNC-45 ΔUCS, 2 mM peptide, SYPRO Orange, 20 mM HEPES pH 8.0, 150 mM NaCl; triplicates; both purified
T4 construct: also called native peptide; identified myosin ligand; source: synthetic peptide
T4 peptide (looked up): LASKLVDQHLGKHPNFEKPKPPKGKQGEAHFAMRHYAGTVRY

HSP90 (from UniProt Q18688 1-702)
binding [1]: binds | binding [2]: binds

B1: UFD-2 ubiquitin ligase (C. elegans) (enzyme, UniProt Q09349 1-984)
chain: MIEDEKAGLQPMDISDASVFFFQADVESKDFLTSLFDCEGKSDDRMLRYADAIIDVQNLNFDVSPQCLQSNIAEIITKFVLLSQDGSRRGLSRSFNFIDPDIIAGCREEDAIEFLLINFVRCHHELGKSGTSNCYKKTLESTRKAVFSVFVMIQRGYLESQLRSQHASLVFTKRLLEDTVSNVFLRTLVEYLASTDECDEDAITETFNPIFGILRSGIICQRFEDNKDEIVRQILRVMNLLLSIRLPSNGPRPLSNLLVNREDFLPTPSEKIQGREFGLMSFLGPFFSYGLESSARRPNHRVFVDCEEDARKYDGSVNTEQKLYFQRMDPIRTMLHQLMLPLASDQGSRNKTLRWIATIISTNDIRTRSHYDPSDVLCDHYMTNFLSVMYMFSEKIDLSKIIVDYPFLPSSLINISKETRLKMDESGAVAFASQFADRPDEYHFSTVCFFLTIAAQRLVIPPLMNQISEYSRHLKELKHKINALKEKLNTVSGFERAEVEKKLNYETEHWKLMSRHLLCVKTQAQDPALMASSMDFVDKQMKFILNLLCDNLDLLGDDSQLPTEVSQMFCALPEYFLEDALDFYIFAISNGMKLLMERNADWISRLTVLFTQYHYIKSPFLVSKLVRVLSSIQPPLWFNVVRLRMAQENLLMCMIKFYSDFEDNGDFYEKFNVRGNIQYMLEKMEEDMFYKGKFMDMARECGAEFIRFVNMVINDATWCIDESLSGLKSIHDVEKKMANKVEWDNTDQEIRNQDLGVYEEAKRKVKGWLGTAKSNLKLLLSITVNSPEPFRTPVLGERLAAMLNHNLSQLIGSKASELKVKDPRSYGWEPREFVSLLISIYLKLNMPAFVKYIAYDERTYSPEFFHNAIECMRKNSIVGFSQLESFEHLAEDVKKEYEAKAELEEEYDDVPEEFKDPIMDAIMVDPVKLPSGHVMDRAVIERHLLSTPNNPFNRAPLSHNELSPDSELKAKIQEWICQKRNSKK
binding [3]: no binding (condition: incubated at 4 °C (myosin folded)) | binding [4]: binds | binding [5]: binds

B2: UNC-45 ΔUCS (domain or fragment, UniProt G5EG62)
chain: MVARVQTAEEIRDEGNAAVKDQDYIKADELYTEALQLTTDEDKALRPVLYRNRAMARLKRDDFEGAQSDCTKALEFDGADVKALFRRSLAREQLGNVGPAFQDAKEALRLSPNDKGIVEVLQRLVKANNDKIKQTTSLANKVTDMEKLAFRGEAKDTEQKMTALNNLLVLCRESESGATGVWNQGALVPFVLNLINDASENEEVTVTAIRILDETIKNSVRCMKFLAMHDPDGPKSVRFVCRLMCKKSTKDFVDATGILVQRVFNAMAKMDRQKEMKPDPEVAEANKIWIIRVLLELQEMLQDPKVGAVQRETCIDLFLKNLMHMDGGIPRGWSWKFVEERGLLALLDVASQIPELCEYPVSAETRQHVAICLQRLEEDMVFDTKRTIFKEKVDMFFNALISRCTNDDEGHKYRIKLSCFLITMLQGPVDIGINLITNDQLTPIMLEMAASQDHLMQGIAAELIVATVSKHERAINMLKVGIPVLRALYDSEDPTVKVRALVGLCKIGAAGGDDISKATMKLGTINQERAGSTEQAKRGLEAAEKFGLIKATDREIYERENQMSTIQE
binding [6]: no binding (tested: 1 μM protein, 2 mM peptide)
